One data set deals with Mu-type opioid receptor (Homo sapiens, UniProt P35372). Put plainly: biochemical. The data set is classed as cell-based, CHO.
For data set [1], the target named is Kappa-type opioid receptor (Homo sapiens, UniProt P41145). Description: biochemical. The data set is classed as cell-based, CHO.
In data set [2] the target is Delta-type opioid receptor (Homo sapiens, UniProt P41143). Put plainly: biochemical.
A short description of data set [3]: Toxicity in C57BL/6 mouse assessed as effect on locomotion tail at 10 mg/kg, sc. In kind it is organism-based. The note with it: in vivo.
Data set [4] is described as follows: Toxicity in C57BL/6 mouse assessed as induction of Straub tail at 10 mg/kg, sc. The data set is classed as organism-based. To be noted: in vivo.
Data set [5] in a line: Toxicity in C57BL/6 mouse assessed as induction of sedation at 10 mg/kg, sc. The data set is classed as organism-based. To be noted: in vivo.
Data set [6] can be described thus: Toxicity in C57BL/6 mouse assessed as induction of convulsions at 10 mg/kg, sc. To be noted: in vivo. In kind it is organism-based.
Data set [7] can be described thus: Ratio of half life of compound to verapamil in mouse liver microsomes at 1 uM in presence of NADPH by LC-MS/MS analysis. In kind it is ADME, Microsome. A general note: Liver microsomes are a subcellular fraction often used to study metabolism.
Data set [8] can be described thus: Toxicity in C57BL/6 mouse assessed as induction of behavioral changes at 10 mg/kg, sc. In kind it is organism-based. The note with it: in vivo.
The test system of data set [9] is Mus musculus. Put plainly: Antinociceptive activity in C57BL/6 mouse assessed as reduction in writhing at 1 mg/kg, sc dosed 30 mins before acetic acid injection and measured after 20 mins by acetic acid stretch assay. The data set is classed as functional, organism-based.
Data set [10] concerns Mus musculus. Description: Antinociceptive activity in C57BL/6 mouse assessed as reduction in writhing at 10 mg/kg, sc dosed 30 mins before acetic acid injection and measured after 20 mins by acetic acid stretch assay. In kind it is functional, organism-based. In general terms: Writhing tests count abdominal constrictions after an irritant is injected.

Calls of active or inactive are those of the source. The calls are words filed in the database; no cut-off is given here.

UniProt P41143, sequence (P41143 whole entry): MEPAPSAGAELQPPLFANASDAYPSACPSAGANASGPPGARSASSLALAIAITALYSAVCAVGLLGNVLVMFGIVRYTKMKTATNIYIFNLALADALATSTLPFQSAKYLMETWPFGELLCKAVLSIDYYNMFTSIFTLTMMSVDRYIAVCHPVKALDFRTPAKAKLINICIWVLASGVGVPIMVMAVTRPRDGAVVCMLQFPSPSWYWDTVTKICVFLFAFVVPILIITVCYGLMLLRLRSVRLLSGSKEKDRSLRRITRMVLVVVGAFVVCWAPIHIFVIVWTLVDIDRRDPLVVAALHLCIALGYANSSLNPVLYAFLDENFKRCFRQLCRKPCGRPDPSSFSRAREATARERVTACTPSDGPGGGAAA
UniProt P35372, sequence (P35372 whole entry): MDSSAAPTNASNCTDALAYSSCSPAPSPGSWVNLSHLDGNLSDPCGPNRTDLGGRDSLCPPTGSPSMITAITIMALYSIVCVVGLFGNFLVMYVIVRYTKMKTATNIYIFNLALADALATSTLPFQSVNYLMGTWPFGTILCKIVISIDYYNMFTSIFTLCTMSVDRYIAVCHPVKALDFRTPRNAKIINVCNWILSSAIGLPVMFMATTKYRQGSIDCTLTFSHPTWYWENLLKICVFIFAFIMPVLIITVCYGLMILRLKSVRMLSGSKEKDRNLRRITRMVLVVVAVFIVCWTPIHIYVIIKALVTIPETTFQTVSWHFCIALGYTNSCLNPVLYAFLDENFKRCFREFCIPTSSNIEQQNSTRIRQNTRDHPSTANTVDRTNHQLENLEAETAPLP
UniProt P41145, sequence (P41145 whole entry): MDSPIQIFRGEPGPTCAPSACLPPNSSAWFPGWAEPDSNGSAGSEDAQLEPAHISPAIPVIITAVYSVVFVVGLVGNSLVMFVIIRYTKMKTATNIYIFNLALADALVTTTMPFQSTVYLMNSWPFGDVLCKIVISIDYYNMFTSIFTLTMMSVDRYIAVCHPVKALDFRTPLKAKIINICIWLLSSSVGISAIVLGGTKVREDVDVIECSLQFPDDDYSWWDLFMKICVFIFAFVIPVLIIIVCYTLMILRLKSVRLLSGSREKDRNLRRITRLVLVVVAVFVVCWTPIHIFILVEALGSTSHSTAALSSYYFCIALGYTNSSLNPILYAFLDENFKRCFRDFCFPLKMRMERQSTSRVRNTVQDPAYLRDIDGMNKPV

For the compound `CCOc1ccc(CN2CCOCC2)cc1CNC(=O)[C@@H](N)Cc1c(C)cc(O)cc1C.O=C(O)C(F)(F)F`, the results for the Ki (on Mu-type opioid receptor; in data set [1]; in data set [2]) were 38 nM, above 1870 nM and 76 nM, respectively.
On the same counts, the results for `CCOc1ccc(C(=O)N2Cc3ccccc3C2)cc1CNC(=O)[C@@H](N)Cc1c(C)cc(O)cc1C.O=C(O)C(F)(F)F` are 0.29 nM, 261 nM and 5.9 nM.
As to `CCOc1ccc(CN2CCCC2)cc1CNC(=O)[C@@H](N)Cc1c(C)cc(O)cc1C.O=C(O)C(F)(F)F`, the values for the Ki (on Mu-type opioid receptor; in data set [1]; in data set [2]) were 15 nM, 430 nM and 44.4 nM, respectively. For the same compound, the Activity entry in data set [3], in data set [4], in data set [5], in [6] and in [8] was “Non-Toxic” throughout. In data set [7], the Ratio was found to be 6.6.
Regarding `CCOc1ccc(CN2CC3CC3C2)cc1CNC(=O)[C@@H](N)Cc1c(C)cc(O)cc1C` (stereo partly specified), the Ki at Mu-type opioid receptor turned out to be 19.6 nM; in data set [1] it was 247 nM; in data set [2] it was 50 nM.
For the compound `CCOc1ccc(CN2CCc3ccccc3C2)cc1CNC(=O)[C@@H](N)Cc1c(C)cc(O)cc1C.O=C(O)C(F)(F)F`, the Ki at Mu-type opioid receptor is 0.23 nM; in [1] it was 44.2 nM; in data set [2], 2.4 nM. The Activity entry in [3], in data set [4], in [5], in [6] and in [8] was “Non-Toxic” in each case.
Regarding `CCOc1ccc(CN2Cc3ccccc3C2)cc1CNC(=O)[C@@H](N)Cc1c(C)cc(O)cc1C.O=C(O)C(F)(F)F`, the Ki on Mu-type opioid receptor was determined as 0.8 nM; in data set [1], 243 nM. In addition, the Activity entry in [3], in data set [4], in [5], in data set [6] and in data set [8] was “Non-Toxic” in each case. In the data set with Mus musculus [9], the outcome was Active.
Regarding `CCOc1ccc(CN2CCCCC2)cc1CNC(=O)[C@@H](N)Cc1c(C)cc(O)cc1C.O=C(O)C(F)(F)F`, the Ki on Mu-type opioid receptor is 5 nM; in data set [1] it was 101 nM; in [2], 15.7 nM. The Activity result in data set [3], in [4], in data set [5], in data set [6] and in data set [8] was “Non-Toxic” each time. Besides, in [7], the Ratio turned out to be 3.3.
In the case of `CCOc1ccc(C(=O)N2CCCC2)cc1CNC(=O)[C@@H](N)Cc1c(C)cc(O)cc1C.O=C(O)C(F)(F)F`, the Ki was 33 nM at Mu-type opioid receptor, above 716 nM in data set [1] and 74 nM in data set [2].
In the case of `CCOc1ccc(CNCc2ccccc2)cc1CNC(=O)[C@@H](N)Cc1c(C)cc(O)cc1C.O=C(O)C(F)(F)F`, in data set [1], the affinity corresponds to a Ki of 23.2 nM. The Activity result in data set [3], in data set [4], in data set [5], in data set [6] and in [8] was “Non-Toxic” throughout. Also, the result in the data set on Mus musculus [10] was Active.
As for `CCOc1ccc(CN(C)Cc2ccccc2)cc1CNC(=O)[C@@H](N)Cc1c(C)cc(O)cc1C.O=C(O)C(F)(F)F`, the Ki on Mu-type opioid receptor was 0.48 nM; in [1], 12.4 nM; in [2] it was 1.93 nM. Besides, the Activity result in data set [3], in [4], in [5], in data set [6] and in [8] was “Non-Toxic” each time.

The term Ki denotes the equilibrium dissociation constant of an inhibitor or competing ligand from its target. High values mean a looser hold on the target, low ones a stronger hold on the target.

The values are drawn from ChEMBL document CHEMBL4376894 (J Med Chem, 2020).
